The other results are listed elsewhere or left out.
What was measured:
Test in all cases: glycan array binding signal (z-score within array); higher = stronger binding
Details in all cases: glycan notation: IUPAC condensed, linker removed
[1] = molecular target: GlcNAc(b1-4)GlcNAc(b1-4)GlcNAc(b1-4)GlcNAc(b1-4)GlcNAc(b1-4)GlcNAc
How it was run: (§1)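 The binding signal is a Z-score computed within each array. Data were drawn from 3228 arrays in the Consortium for Functional Glycomics database, restricted to those with a known protein sequence. Scores were averaged over arrays of the same protein sequence at different concentrations or buffers, and over linkers, and negative values can be taken as non-binding.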

[2] = molecular target: GlcNAc(b1-4)GlcNAc(b1-4)GlcNAc(b1-4)GlcNAc(b1-4)GlcNAc(b1-4)GlcNAc(b1-4)GlcNAc
How it was run: as §1

[3] = molecular target: GlcNAc(b1-4)GlcNAc(b1-4)GlcNAc(b1-4)GlcNAc(b1-4)GlcNAc(b1-4)GlcNAc(b1-4)GlcNAc(b1-4)GlcNAc
How it was run: as §1

[4] = molecular target: HexA(a1-3)GalNAc4S(b1-4)GlcA(b1-3)GalNAc4S
How it was run: as §1

[5] = molecular target: HexA(a1-3)GalNAc4S(b1-4)GlcA(b1-3)GalNAc4S(b1-4)GlcA(b1-3)GalNAc4S(b1-4)GlcA(b1-3)GalNAc4S(b1-4)GlcA(b1-3)GalNAc4S(b1-4)GlcA(b1-3)GalNAc4S(b1-4)GlcA(b1-3)GalNAc4S
How it was run: as §1

[6] = molecular target: HexA(a1-3)GalNAc4S(b1-4)IdoA(a1-3)GalNAc4S
How it was run: as §1

[7] = molecular target: HexA(a1-3)GalNAc4S(b1-4)IdoA(a1-3)GalNAc4S(b1-4)IdoA(a1-3)GalNAc4S(b1-4)IdoA(a1-3)GalNAc4S(b1-4)IdoA(a1-3)GalNAc4S(b1-4)IdoA(a1-3)GalNAc4S(b1-4)IdoA(a1-3)GalNAc4S
How it was run: as §1

[8] = molecular target: HexA(a1-3)GalNAc6S(b1-4)GlcA(b1-3)GalNAc6S
How it was run: as §1

[9] = molecular target: HexA(a1-3)GalNAc6S(b1-4)GlcA(b1-3)GalNAc6S(b1-4)GlcA(b1-3)GalNAc6S(b1-4)GlcA(b1-3)GalNAc6S(b1-4)GlcA(b1-3)GalNAc6S(b1-4)GlcA(b1-3)GalNAc6S(b1-4)GlcA(b1-3)GalNAc6S
How it was run: as §1

[10] = molecular target: HexA(a1-4)GlcNAc(a1-4)HexA(a1-4)GlcNAc(a1-4)HexA(a1-4)GlcNAc(a1-4)HexA(a1-4)Man
How it was run: as §1

HexA2S(a1-4)GlcNS6S = molecular target: HexA2S(a1-4)GlcNS6S
How it was run: as §1

[11] = molecular target: HexA6S(a1-4)GlcNS6S(a1-4)IdoA2S(a1-4)GlcNS6S
How it was run: as §1

[12] = molecular target: HexA6S(a1-4)GlcNS6S(a1-4)IdoA2S(a1-4)GlcNS6S(a1-4)IdoA2S(a1-4)GlcNS6S(a1-4)IdoA2S(a1-4)GlcNS6S(a1-4)IdoA2S(a1-4)GlcNS6S(a1-4)IdoA2S(a1-4)GlcNS6S(a1-4)IdoA2S(a1-4)GlcNS6S
How it was run: as §1

[13] = molecular target: Kdn(a2-3)[GalNAc(b1-4)]Gal(b1-3)GlcNAc
How it was run: as §1

Man(a1-2)Man = molecular target: Man(a1-2)Man
How it was run: as §1

[14] = molecular target: Man(a1-2)Man(a1-2)Man(a1-3)[Man(a1-2)Man(a1-3)[Man(a1-2)Man(a1-6)]Man(a1-6)]Man(b1-4)GlcNAc(b1-4)GlcNAc
How it was run: as §1

[15] = molecular target: Man(a1-2)Man(a1-2)Man(a1-3)[Man(a1-2)Man(a1-6)[Man(a1-3)]Man(a1-6)]Man(b1-4)GlcNAc(b1-4)GlcNAc
How it was run: as §1

[16] = molecular target: Man(a1-2)Man(a1-2)Man(a1-3)[Man(a1-3)[Man(a1-6)]Man(a1-6)]Man(b1-4)GlcNAc(b1-4)GlcNAc
How it was run: as §1

[17] = molecular target: Man(a1-2)Man(a1-3)[Man(a1-2)Man(a1-6)[Man(a1-3)]Man(a1-6)]Man(b1-4)GlcNAc(b1-4)GlcNAc
How it was run: as §1

[18] = molecular target: Man(a1-2)Man(a1-3)[Man(a1-3)[Man(a1-6)]Man(a1-6)]Man(b1-4)GlcNAc(b1-4)GlcNAc
How it was run: as §1

Man(a1-3)Man = molecular target: Man(a1-3)Man
How it was run: as §1

[19] = molecular target: Man(a1-3)Man(a1-6)[Man(a1-3)]Man(b1-4)GlcNAc(b1-4)GlcNAc
How it was run: as §1

Man(a1-3)Man(b1-4)GlcNAc = molecular target: Man(a1-3)Man(b1-4)GlcNAc
How it was run: as §1

Man(a1-3)[Man(a1-6)]Man = molecular target: Man(a1-3)[Man(a1-6)]Man
How it was run: as §1

[20] = molecular target: Man(a1-3)[Man(a1-6)]Man(a1-6)Man(b1-4)GlcNAc(b1-4)GlcNAc
How it was run: as §1

[21] = molecular target: Man(a1-3)[Man(a1-6)]Man(a1-6)[Man(a1-3)]Man
How it was run: as §1

[22] = molecular target: Man(a1-3)[Man(a1-6)]Man(a1-6)[Man(a1-3)]Man(b1-4)GlcNAc(b1-4)GlcNAc
How it was run: as §1

[23] = molecular target: Man(a1-3)[Man(a1-6)]Man(b1-4)GlcNAc(b1-4)GlcNAc
How it was run: as §1

[24] = molecular target: Man(a1-3)[Man(a1-6)]Man(b1-4)GlcNAc(b1-4)[Fuc(a1-6)]GlcNAc
How it was run: as §1

Man(a1-6)Man = molecular target: Man(a1-6)Man
How it was run: as §1

[25] = molecular target: Man(a1-6)Man(b1-4)GlcNAc(b1-4)GlcNAc
How it was run: as §1

Man(b1-4)GlcNAc = molecular target: Man(b1-4)GlcNAc
How it was run: as §1

[26] = molecular target: Man(b1-4)Man(b1-4)Man(b1-4)Man
How it was run: as §1

[27] = molecular target: Man(b1-4)Man(b1-4)Man(b1-4)Man(b1-4)Man
How it was run: as §1

[28] = molecular target: Man(b1-4)Man(b1-4)Man(b1-4)Man(b1-4)Man(b1-4)Man
How it was run: as §1

[29] = molecular target: Man6P(a1-3)Man(a1-3)Man(a1-3)Man(a1-2)Man
How it was run: as §1

Neu(a2-3)Gal(b1-4)Glc = molecular target: Neu(a2-3)Gal(b1-4)Glc
How it was run: as §1

[30] = molecular target: Neu(a2-3)Gal(b1-4)GlcNAc(b1-3)Gal(b1-4)[Fuc(a1-3)]GlcNAc(b1-3)Gal(b1-4)Glc
How it was run: as §1

[31] = molecular target: Neu(a2-3)Gal(b1-4)GlcNAc6S(b1-3)Gal(b1-4)Glc
How it was run: as §1

[32] = molecular target: Neu(a2-3)Gal(b1-4)[Fuc(a1-3)]GlcNAc(b1-3)Gal(b1-4)Glc
How it was run: as §1

[33] = molecular target: Neu(a2-3)Gal(b1-4)[Fuc(a1-3)]GlcNAc6S(b1-3)Gal(b1-4)Glc
How it was run: as §1

[34] = molecular target: Neu(a2-3)Gal6S(b1-4)[Fuc(a1-3)]GlcN(b1-3)Gal(b1-4)Glc
How it was run: as §1

Neu(a2-6)Gal(b1-4)Glc = molecular target: Neu(a2-6)Gal(b1-4)Glc
How it was run: as §1

[35] = molecular target: Neu4Ac5Ac(a2-3)Gal(b1-4)Glc
How it was run: as §1

Neu5Ac(a2-3)Gal = molecular target: Neu5Ac(a2-3)Gal
How it was run: as §1

B1: MIC1 (Toxoplasma gondii), O00834 (protein)
chain: VGPEAYGEASHSHSPASGRYIQQMLDQRCQEIAAELCQSGLRKMCVPSSRIVARNAVGITHQNTLQWRCFDTASLLESNQENNGVNCVDDCGHTIPCPGGVHRQNSNHATRHEILSKLVEEGVQRFCSPYQASANKYCNDKFPGTIARRSKGFGNNVEVAWRCYEKASLLYSVYAECASNCGTTWYCPGGRRGTSTELDKRHYTEEEGIRQAIGSVDSPCSEVEVCLPKDENPPLCLDESGQISRT
Q: What does the source list for B1?
A: glycan array binding signal (z-score) [1]: -0.287; glycan array binding signal (z-score) [2]: -0.287; glycan array binding signal (z-score) [3]: -0.287; glycan array binding signal (z-score) [4]: -0.287; glycan array binding signal (z-score) [5]: -0.306; glycan array binding signal (z-score) [6]: -0.299; glycan array binding signal (z-score) [7]: -0.312; glycan array binding signal (z-score) [8]: -0.291; glycan array binding signal (z-score) [9]: -0.312; glycan array binding signal (z-score) [10]: -0.337; glycan array binding signal (z-score) (HexA2S(a1-4)GlcNS6S): -0.242; glycan array binding signal (z-score) [11]: -0.269; glycan array binding signal (z-score) [12]: 0.219; glycan array binding signal (z-score) [13]: -0.274; glycan array binding signal (z-score) (Man(a1-2)Man): -0.287; glycan array binding signal (z-score) [14]: -0.354; glycan array binding signal (z-score) [15]: -0.311; glycan array binding signal (z-score) [16]: -0.293; glycan array binding signal (z-score) [17]: -0.312; glycan array binding signal (z-score) [18]: -0.312; glycan array binding signal (z-score) (Man(a1-3)Man): -0.287; glycan array binding signal (z-score) [19]: -0.312; glycan array binding signal (z-score) (Man(a1-3)Man(b1-4)GlcNAc): -0.287; glycan array binding signal (z-score) (Man(a1-3)[Man(a1-6)]Man): -0.302; glycan array binding signal (z-score) [20]: -0.312; glycan array binding signal (z-score) [21]: -0.288; glycan array binding signal (z-score) [22]: -0.308; glycan array binding signal (z-score) [23]: -0.312; glycan array binding signal (z-score) [24]: -0.29; glycan array binding signal (z-score) (Man(a1-6)Man): -0.312; glycan array binding signal (z-score) [25]: -0.312; glycan array binding signal (z-score) (Man(b1-4)GlcNAc): -0.287; glycan array binding signal (z-score) [26]: -0.312; glycan array binding signal (z-score) [27]: -0.312; glycan array binding signal (z-score) [28]: -0.3; glycan array binding signal (z-score) [29]: -0.284; glycan array binding signal (z-score) (Neu(a2-3)Gal(b1-4)Glc): -0.455; glycan array binding signal (z-score) [30]: 0.551; glycan array binding signal (z-score) [31]: -0.476; glycan array binding signal (z-score) [32]: -0.479; glycan array binding signal (z-score) [33]: -0.441; glycan array binding signal (z-score) [34]: -0.443; glycan array binding signal (z-score) (Neu(a2-6)Gal(b1-4)Glc): -0.469; glycan array binding signal (z-score) [35]: -0.395; glycan array binding signal (z-score) (Neu5Ac(a2-3)Gal): 0.052
